These are yes or no findings as the source states them, for the method shown. For some assays here: In cells and extracts the contact can be indirect. Some results given as binding are weak or reduced against the parent protein; the word gives no strength. For some assays here: Sequences can lack the tags named with a protein.

Assay [1] addresses T1, Trf2 tagged on its C-terminus with a 6xHis-Tev-3xFlag tag (mouse (endogenous in testis, knock-in allele)) (UniProt P62340).
T1 sequence: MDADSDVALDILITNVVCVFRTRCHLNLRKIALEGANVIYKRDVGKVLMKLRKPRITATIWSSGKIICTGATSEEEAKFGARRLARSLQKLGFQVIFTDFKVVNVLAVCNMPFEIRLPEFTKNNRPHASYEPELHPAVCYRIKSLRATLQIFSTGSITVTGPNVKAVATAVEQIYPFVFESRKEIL
The assay can be described thus: SEC; gel filtration of testis cytoplasmic extract (5-10 mg protein) on Superose 6 (10/300), 0.4 ml/min, 100 mM KCl (also up to 0,5 M KCl); fractions analysed by western blot. A general note: SEC sorts molecules by how far they enter the pores of the column.

In assay [2] the target is T1, Trf2 tagged on its C-terminus with a 6xHis-Tev-3xFlag tag (mouse (endogenous in testis, knock-in allele)). The assay can be described thus: co-IP; tandem affinity purification of tagged Trf2 from pooled gel filtration fractions B3-B7 of testis cytoplasmic extract: anti-Flag M2-agarose, Flag peptide elution, Talon resin, elution with 0.1 M EDTA; immunoblot; WT testis as control.

The target is the same in assay [3]. In words: co-IP; anti-Flag M2 resin on MNase digested chromatin from formaldehyde cross-linked testis; immunoblot; Trf2-/- testis as control. Background: A western blot detects proteins with antibodies after separation by electrophoresis.
Assay [4] concerns the target T2, ALF (TFIIA-like factor) (mouse (endogenous in testis)) (UniProt Q8R4I4).
T2 sequence: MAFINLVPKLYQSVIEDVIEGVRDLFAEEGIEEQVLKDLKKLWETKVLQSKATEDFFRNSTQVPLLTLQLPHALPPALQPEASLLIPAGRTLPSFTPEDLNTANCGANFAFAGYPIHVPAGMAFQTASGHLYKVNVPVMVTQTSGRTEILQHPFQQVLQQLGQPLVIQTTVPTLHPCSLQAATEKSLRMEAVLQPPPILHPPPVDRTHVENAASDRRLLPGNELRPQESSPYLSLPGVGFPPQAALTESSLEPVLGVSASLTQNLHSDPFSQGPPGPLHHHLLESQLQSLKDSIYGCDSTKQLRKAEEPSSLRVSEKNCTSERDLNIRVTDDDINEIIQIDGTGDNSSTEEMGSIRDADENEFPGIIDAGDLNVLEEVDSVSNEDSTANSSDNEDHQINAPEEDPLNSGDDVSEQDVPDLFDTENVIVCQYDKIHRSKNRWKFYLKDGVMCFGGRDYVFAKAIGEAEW
The assay can be described thus: co-IP; sequential: proteins eluted from the anti-Flag IP of Trf2tag/+ testis extract were reprecipitated with ALF antibody; immunoblot.

In assay [5] the target is T3, Trf2 tagged on its C-terminus with a 6xHis-Tev-3xFlag tag (mouse (endogenous in testis, knock-in allele)), P62340.
T3 chain: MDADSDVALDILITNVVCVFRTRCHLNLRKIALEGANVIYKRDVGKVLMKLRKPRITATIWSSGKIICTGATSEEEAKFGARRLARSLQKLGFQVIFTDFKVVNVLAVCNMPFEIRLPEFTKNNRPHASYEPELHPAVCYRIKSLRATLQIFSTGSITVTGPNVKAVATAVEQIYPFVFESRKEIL
The assay can be described thus: co-IP; anti-Flag immunoprecipitation from cytoplasmic extracts of heterozygous Trf2tag/+ and WT testis; immunoblot for tagged and native Trf2. Particulars: remark: other sources report otherwise.

Assay [6] addresses T1, Trf2 tagged on its C-terminus with a 6xHis-Tev-3xFlag tag (mouse (endogenous in testis, knock-in allele)). The assay can be described thus: co-IP; sequential: proteins eluted from the anti-Flag IP of Trf2tag/+ testis extract were reprecipitated with ALF antibody; immunoblot.
Assay [7] has as its target T4, TFIIA (mouse (endogenous in testis)) (UniProt Q99PM3+Q80ZM7).
T4 sequence 1: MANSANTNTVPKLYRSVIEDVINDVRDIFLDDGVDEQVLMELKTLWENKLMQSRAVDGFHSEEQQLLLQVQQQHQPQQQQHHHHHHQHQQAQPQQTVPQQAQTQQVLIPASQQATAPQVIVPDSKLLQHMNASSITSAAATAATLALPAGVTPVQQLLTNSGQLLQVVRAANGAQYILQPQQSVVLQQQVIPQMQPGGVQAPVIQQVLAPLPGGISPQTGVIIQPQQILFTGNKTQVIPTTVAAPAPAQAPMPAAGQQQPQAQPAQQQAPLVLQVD
T4 sequence 2: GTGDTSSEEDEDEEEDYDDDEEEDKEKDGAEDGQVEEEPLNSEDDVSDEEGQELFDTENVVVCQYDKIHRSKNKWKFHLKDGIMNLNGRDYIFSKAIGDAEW
T4 sequence 3: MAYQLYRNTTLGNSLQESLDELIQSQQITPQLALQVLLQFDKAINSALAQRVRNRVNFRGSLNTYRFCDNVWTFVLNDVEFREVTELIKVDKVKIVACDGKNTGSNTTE
In words: SEC; gel filtration of testis cytoplasmic extract (5-10 mg protein) on Superose 6 (10/300), 0.4 ml/min, 100 mM KCl (also up to 0,5 M KCl); fractions analysed by western blot.

B1: TFIIA (complex, UniProt Q99PM3 1-276; Q99PM3 277-378; Q80ZM7 1-109)
chain 1: MANSANTNTVPKLYRSVIEDVINDVRDIFLDDGVDEQVLMELKTLWENKLMQSRAVDGFHSEEQQLLLQVQQQHQPQQQQHHHHHHQHQQAQPQQTVPQQAQTQQVLIPASQQATAPQVIVPDSKLLQHMNASSITSAAATAATLALPAGVTPVQQLLTNSGQLLQVVRAANGAQYILQPQQSVVLQQQVIPQMQPGGVQAPVIQQVLAPLPGGISPQTGVIIQPQQILFTGNKTQVIPTTVAAPAPAQAPMPAAGQQQPQAQPAQQQAPLVLQVD
chain 2: GTGDTSSEEDEDEEEDYDDDEEEDKEKDGAEDGQVEEEPLNSEDDVSDEEGQELFDTENVVVCQYDKIHRSKNKWKFHLKDGIMNLNGRDYIFSKAIGDAEW
chain 3: MAYQLYRNTTLGNSLQESLDELIQSQQITPQLALQVLLQFDKAINSALAQRVRNRVNFRGSLNTYRFCDNVWTFVLNDVEFREVTELIKVDKVKIVACDGKNTGSNTTE
Regarding B1, the binding result was “binds” in assay [1], “binds” in assay [2], “binds” in assay [3] and “no binding” in assay [4].

B2: Trf2 tagged on its C-terminus with a 6xHis-Tev-3xFlag tag, P62340 1-186 (protein)
chain: MDADSDVALDILITNVVCVFRTRCHLNLRKIALEGANVIYKRDVGKVLMKLRKPRITATIWSSGKIICTGATSEEEAKFGARRLARSLQKLGFQVIFTDFKVVNVLAVCNMPFEIRLPEFTKNNRPHASYEPELHPAVCYRIKSLRATLQIFSTGSITVTGPNVKAVATAVEQIYPFVFESRKEIL
As for B2, the binding result in assay [5] is recorded as “no binding”.

B3: ALF (TFIIA-like factor) (protein, UniProt Q8R4I4 1-468)
chain: MAFINLVPKLYQSVIEDVIEGVRDLFAEEGIEEQVLKDLKKLWETKVLQSKATEDFFRNSTQVPLLTLQLPHALPPALQPEASLLIPAGRTLPSFTPEDLNTANCGANFAFAGYPIHVPAGMAFQTASGHLYKVNVPVMVTQTSGRTEILQHPFQQVLQQLGQPLVIQTTVPTLHPCSLQAATEKSLRMEAVLQPPPILHPPPVDRTHVENAASDRRLLPGNELRPQESSPYLSLPGVGFPPQAALTESSLEPVLGVSASLTQNLHSDPFSQGPPGPLHHHLLESQLQSLKDSIYGCDSTKQLRKAEEPSSLRVSEKNCTSERDLNIRVTDDDINEIIQIDGTGDNSSTEEMGSIRDADENEFPGIIDAGDLNVLEEVDSVSNEDSTANSSDNEDHQINAPEEDPLNSGDDVSEQDVPDLFDTENVIVCQYDKIHRSKNRWKFYLKDGVMCFGGRDYVFAKAIGEAEW
Consider B3, for which the binding result in assay [1], in assay [2], in assay [3] and in assay [6] was “binds” in each case.

B4: Tbp (TATA-binding protein) (protein, UniProt P29037 1-316)
chain: MDQNNSLPPYAQGLASPQGAMTPGIPIFSPMMPYGTGLTPQPIQNTNSLSILEEQQRQQQQQQQQQQQQQAVATAAASVQQSTSQQPTQGASGQTPQLFHSQTLTTAPLPGTTPLYPSPMTPMTPITPATPASESSGIVPQLQNIVSTVNLGCKLDLKTIALRARNAEYNPKRFAAVIMRIREPRTTALIFSSGKMVCTGAKSEEQSRLAARKYARVVQKLGFPAKFLDFKIQNMVGSCDVKFPIRLEGLVLTHQQFSSYEPELFPGLIYRMIKPRIVLLIFVSGKVVLTGAKVRAEIYEAFENIYPILKGFRKTT
B4: in assay [7], the binding entry is on record as “no binding”.

B5: Taf7l (protein, UniProt Q9D3R9 1-471)
chain: MERGEEAPTEGAPPEGALVEAKAPVIPEAPATDVSTTEEAGSKEPQVPSGPRPEGAGDTCDTRGARGPPTPGRAKSQKTPRQGTARCQTLESAMRSMSVRLECHDVEEQFILRLPPEQAYAVRKIIHSRNAAWKDKLKIDFSPDGHHAVVQVDNVSLPAKLVNLPCVIGSLKTIDRKTFYKTADVSQMLVCSPEGEPHSPPEEPVVSTGPTVIGISEGKAERKKYNWKHGITPPLKNVRKKRFRKTTKKLPDVKQVDEINFSEYTQSPSVEKEVKRLLYSDAEAVSVRWEVVDDDDAKEIESQGSMPTTPGISQMGGASLSDYDVFREMMGDSGSNSNDVEEKSNEGDDDDDEDEDDEDYGNEKEEEETDNSEEELEKELQAKFNEFSLHEADQDYSSITMAIQKLIFIKEKRLQMIYKKAQRQKELLRKVENLTLKRHFQNVLGKLNIMEKEKCEQIYHLQEQLKCFLKE
As to B5, the binding result in assay [7] is reported as “no binding”.
